We go through one molecule from US20230287093A1.

A value given as a limit tells only on which side of the number the result lay.

The target in this assay is Fc receptors of THP-1 cells (primarily CD32 (FcγRII) and CD64 (FcγRI)). The experiment in a line: cell-based or functional assay. More on the design: unit not given beside the values.

B1: HuPT-113D IgG4 (II) (antibody)
heavy: QVQLVQSGAEVKKPGASVKVSCKASGYTFTSYWIHWVRQAPGQGLEWIGVIDPSDSYTRYNQKFKGRVTMTVDTSTSTAYMELRSLRSDDTAVYYCTTWEVDYWGQGTTVTVSSASTKGPSVFPLAPCSRSTSESTAALGCLVKDYFPEPVTVSWNSGALTSGVHTFPAVLQSSGLYSLSSVVTVPSSSLGTKTYTCNVDHKPSNTKVDKRV[… human IgG4 Fc with S228P (EU numbers) …]
light: DIVMTQSPLSLPVTPGEPASISCRSSQSLVHSDGNTYLHWYLQKPGQSPQLLIYKVSNRFSGVPDRFSGSGSGTDFTLKISRVEAEDVGVYYCSQSTHVPWTFGGGTKVEIKRTVAAPSVFIFPPSDEQLKSGTASVVCLLNNFYPREAKVQWKVDNALQSGNSQESVTEQDSKDSTYSLSSTLTLSKADYEKHKVYACEVTHQGLSSPVTKSFNRGEC
As for B1, the EC50 of cytokine induction in THP-1 cells, as a multiple of that of HuPT-113D IgG1 (II) (times higher than IgG1) was less than 30.
